# Article PMC4336329 (PLoS ONE, 2015)
# Out of some 310,000 compounds screened, about 2,200 (0.71%) showed an effect of 50% or more. The effect is printed as a negative number. The list shows a part of the results.
# Molecular target: human ether-à-go-go-related gene (hERG) potassium channel (human, UniProt Q12809)
# Assay: primary screen, population patch clamp on CHO cells stably expressing hERG
# Chain of human ether-à-go-go-related gene (hERG) potassium channel (Q12809 whole entry, looked up): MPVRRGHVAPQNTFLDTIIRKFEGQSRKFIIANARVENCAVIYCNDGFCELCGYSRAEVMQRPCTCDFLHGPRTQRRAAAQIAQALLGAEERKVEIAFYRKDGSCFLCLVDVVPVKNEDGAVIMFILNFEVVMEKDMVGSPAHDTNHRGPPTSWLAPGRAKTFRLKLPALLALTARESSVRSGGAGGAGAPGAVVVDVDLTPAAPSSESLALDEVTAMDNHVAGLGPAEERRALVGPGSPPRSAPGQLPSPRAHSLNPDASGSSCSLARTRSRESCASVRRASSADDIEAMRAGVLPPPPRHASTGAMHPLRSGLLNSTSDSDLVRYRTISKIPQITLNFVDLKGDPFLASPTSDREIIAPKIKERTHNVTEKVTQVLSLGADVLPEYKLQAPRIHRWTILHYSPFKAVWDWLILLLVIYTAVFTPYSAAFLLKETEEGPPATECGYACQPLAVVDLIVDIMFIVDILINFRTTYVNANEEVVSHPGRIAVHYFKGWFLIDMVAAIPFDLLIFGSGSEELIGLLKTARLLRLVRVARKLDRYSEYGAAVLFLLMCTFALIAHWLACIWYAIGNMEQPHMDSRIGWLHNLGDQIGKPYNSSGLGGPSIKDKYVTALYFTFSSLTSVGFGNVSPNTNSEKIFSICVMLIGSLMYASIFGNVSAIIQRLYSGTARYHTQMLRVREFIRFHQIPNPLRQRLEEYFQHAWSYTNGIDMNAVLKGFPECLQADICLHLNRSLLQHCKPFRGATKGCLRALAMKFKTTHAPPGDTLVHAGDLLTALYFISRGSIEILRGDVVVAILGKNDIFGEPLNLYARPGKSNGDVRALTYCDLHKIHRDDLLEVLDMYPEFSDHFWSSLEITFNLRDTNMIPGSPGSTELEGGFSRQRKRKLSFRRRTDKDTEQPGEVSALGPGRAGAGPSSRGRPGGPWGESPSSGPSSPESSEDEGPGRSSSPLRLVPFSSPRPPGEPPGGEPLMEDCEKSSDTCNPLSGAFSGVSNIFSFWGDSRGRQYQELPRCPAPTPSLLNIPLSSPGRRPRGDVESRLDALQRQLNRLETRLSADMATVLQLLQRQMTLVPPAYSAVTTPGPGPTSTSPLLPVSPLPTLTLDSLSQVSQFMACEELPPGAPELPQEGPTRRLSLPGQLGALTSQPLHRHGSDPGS
row,Compound,"hERG current change (%, negative = inhibition) at 1uM"
1,CCC1=NN(C(=O)c2cccc([N+](=O)[O-])c2)C(O)(c2ccc(C)cc2)C1 (stereo not drawn),19%
2,CCOC(=O)N1CCC(Nc2c(Nc3ccc(F)cc3)c(=O)c2=O)CC1,16.9%
3,COC(=O)COc1ccc(-c2ccccc2)cc1C=O,8.6%
4,O=C(NCCN1CCOCC1)c1ccc2c(c1)N(Cc1c(F)cccc1Cl)C(=O)c1ccccc1S2,11.5%
5,O=C(Nc1ccc2oc(-c3ccncc3)nc2c1)c1ccco1,15.4%
6,O=C1NC(=Nc2ccccc2)S/C1=C\c1cccn1-c1ccccc1,12.8%
7,CC(=O)c1cccc(NC(=O)N2CCOCC2)c1,15.1%
8,CC1(c2nnc(-c3cccc(Cl)c3)o2)CC(c2cccc(Cl)c2)=NO1 (stereo not drawn),11.6%
9,CCCNc1c(NC(=O)COc2ccc(Cl)cc2)c(=O)oc2ccccc12,0.348%
10,COc1ccc(/C(O)=C2/C(=O)C(=O)N(c3ccccn3)C2c2cccc(Cl)c2)cc1 (stereo not drawn),12.4%
11,O=C1CCC2(C(=O)O)Sc3ccccc3N12 (stereo not drawn),6.7%
12,COc1cc(CCN)ccc1O.Cl,14.2%
13,CCOC(=O)c1c(NCC2CCCO2)c2ccccc2[nH]c1=O (stereo not drawn),2.15%
14,C1CCC(n2nnnc2CN2CCCC2)CC1,-0.0339%
15,O=C(N/N=C/c1cccc([N+](=O)[O-])c1)c1ccccc1-n1cccc1,7.19%
16,CCOc1ccc(NC(=S)N2CCN(S(=O)(=O)c3ccc(C)cc3)CC2)cc1,5.75%
17,COc1ccccc1/C=C/C(=O)Nc1cccnc1,16.1%
18,O=C(COC(=O)c1ccc(NS(=O)(=O)c2ccc3c(c2)OCCO3)cc1)NCC1CCCO1 (stereo not drawn),15.6%
19,CCOc1ccccc1N1CCN(C(=S)Nc2ccc(S(=O)(=O)Nc3ncccn3)cc2)CC1,7.12%
20,O=C(c1ccc(Br)o1)N1CCN(c2ccc(F)cc2)CC1,3.15%
21,COCCOC(=O)C1=C(C)N=C2SCCC(=O)N2C1c1ccc(OC(=O)c2ccco2)cc1 (stereo not drawn),3.59%
22,COc1ccc(NC(=O)COC(=O)CNS(=O)(=O)c2ccccc2)cc1OC,8.86%

row,Compound,"hERG current change (%, negative = inhibition) at 1uM"
1,Cc1cc(C)cc(Nc2ccc([N+](=O)[O-])nc2[N+](=O)[O-])c1,13%
2,COc1ccc(NC2c3ncccc3C(=O)N2Cc2cccs2)cc1 (stereo not drawn),1.95%
3,O=C(O)C1CCCCC1C(=O)Nc1cccc2ccccc12 (stereo not drawn),10.8%
4,Cc1cc(C(=O)N/N=C/c2ccc[nH]2)no1,12.2%
5,CN1C(=O)NC(c2ccc(Cl)cc2)C2=C1CC(C)(C)CC2=O (stereo not drawn),12.6%
6,CCC(=O)N1CCc2cc(S(=O)(=O)N(C)c3ccc(OC)cc3OC)ccc21,14%
7,O=C(Cc1ccccc1[N+](=O)[O-])NCc1ccc2c(c1)OCO2,4.59%
8,COc1ccc(CNC(=O)c2cccnc2)cc1,7.91%
9,O=C(c1ccco1)N1CCN(C(c2cccs2)c2sc3ncnn3c2O)CC1 (stereo not drawn),9.42%
10,CC1CCN(CCNC(=S)Nc2ccc(Cl)cc2)CC1,0.581%
11,O=C(Nc1ccc(O)cc1C(=O)O)c1cccs1,9.59%
12,COc1ccc(S(=O)(=O)N2CCC(C(=O)NCCN3CCOCC3)CC2)cc1OC,11%
13,CC1CCN(S(=O)(=O)c2ccc(NC(=O)Cn3nnc(-c4ccccc4)n3)cc2)CC1,8.71%
14,Cc1ccc(CNC(=O)C2CCCN(c3ncnc4c3nc3n4CCCCC3)C2)cc1 (stereo not drawn),0.715%
15,COc1ccccc1-n1cc(-c2ccccc2)[nH]c1=S,13.5%
16,O=C(NCCNc1ccc([N+](=O)[O-])cc1)c1cccs1,0.701%
17,COc1ccc(/C=N/OC(=O)c2ccc(Cl)cc2)c(Cl)c1OC,1.72%
18,Cc1ccc(-c2csc(N3N=C(c4ccccc4)/C(=C\c4ccc(N(C)C)cc4)C3=O)n2)cc1,6.34%
19,COc1ccccc1NS(=O)(=O)c1cccc(NC(=O)NC2CCCCC2)c1,12.3%
20,CNC(=O)CN(CCc1ccccc1)S(=O)(=O)c1ccc(OC)cc1,10.6%
21,O=C(NC(Cc1ccccc1)C(=O)O)/C(=C/c1cccc(Br)c1)NC(=O)c1ccco1 (stereo not drawn),10.6%
22,O=C(NCCCN1CCOCC1)c1cc2c(=O)[nH]c3ccccc3c2s1,10.6%

row,Compound,"hERG current change (%, negative = inhibition) at 1uM"
1,COc1ccc(C(CC(=O)N2CCOCC2)C(C)C)cc1 (stereo not drawn),20.2%
2,C=CC12CN(C)[C@@H]3C4CO[C@H](C[C@H]41)[C@]1(C(=O)Nc4ccccc41)[C@@H]32 (stereo partly drawn),11.6%
3,Cc1cccc(NS(=O)(=O)c2ccc(NC(=O)N3CCCCC3)cc2)c1,-0.808%
4,CN(C)c1nc(N(C)C)nc(N(C#N)Cc2ccc(Cl)cc2)n1,9.72%
5,CCN1CCN(c2ccc(S(=O)(=O)N3CCCCC3)cc2NC(=O)c2ccc(F)cc2)CC1,-16.7%
6,Cc1ccc(N(CC(=O)NC2CCCCC2)C(=O)CCCC(=O)Nc2ccccn2)c(C)c1,8.99%
7,COc1cc(CCCN2C(=O)C(=O)NC[C@@H]2CC2CCCCC2)cc(OC)c1OC,10.3%
8,O=C(Oc1ccc(N2C(=O)CCC2=O)cc1)c1ccccc1Cl,0.271%
9,COc1ccc(C2CC(c3ccccc3)=NN2C(=O)CSc2ncccn2)cc1 (stereo not drawn),6.77%
10,CCOc1ccc(OCC(=O)OCc2csc(CC(=O)Nc3ccccc3C)n2)cc1,11.7%
11,COCCN(C(=S)Nc1c(C)cc(C)cc1C)C(C)c1cccs1 (stereo not drawn),-8.8%
12,Cc1[nH]n(C(N)=S)c(=O)c1N=Nc1cccc([N+](=O)[O-])c1C,11.3%
13,C=CCn1c(SCC(=O)Nc2ccc(C(=O)O)cc2)nc2sc(C)c(C)c2c1=O,15.8%
14,COc1cccc(/C=N/Nc2ncccc2[N+](=O)[O-])c1OC,9.28%
15,Cc1ccc(NC(=O)COC(=O)c2c(-c3ccccc3)noc2C)c(C)c1,5.79%
16,CCOC(=O)C1=C(C)N(c2ccccc2)C(=O)/C1=C\c1cccs1,15.3%
17,COc1cccc(C(=O)NCC(=O)N/N=C/c2ccc(OC(=O)c3cccs3)c(OC)c2)c1,1.01%
18,COc1ccc(C(c2c(C)n(C)n(-c3ccccc3)c2=O)c2c(C)n(C)n(-c3ccccc3)c2=O)cc1,9.52%
19,O=C(CN1C(=O)CCS(=O)(=O)c2ccccc21)Nc1cccc(F)c1,10.6%
20,Cc1c(C)c2ccc(OCC(=O)N3CCC(C(=O)O)CC3)cc2oc1=O,-5.78%
21,O=[N+]([O-])c1cccc(/C=C/c2nc[nH]c2[N+](=O)[O-])c1,10.8%
22,COc1ccccc1-c1cc(C(=O)Nc2c(C)n(C)n(-c3ccccc3)c2=O)no1,-0.922%

row,Compound,"hERG current change (%, negative = inhibition) at 1uM"
1,COc1cccc(NS(=O)(=O)c2nc3nc(C)cc(C)n3n2)c1,1.02%
2,CCN(CC(=O)Nc1ccccc1OC)C(=O)CSCc1c(C)noc1C,16.1%
3,CCN(CC(=O)Nc1c(F)cccc1F)C(=O)c1cccc(S(=O)(=O)N2CCN(c3ccccc3)CC2)c1,0.792%
4,Cc1c(Cl)c([N+](=O)[O-])nn1CC(=O)NCCCN1CCOCC1,7.41%
5,Cc1nc(CSc2ccc(Cl)cc2)cc(NCc2ccccc2)n1,10.9%
6,COc1ccc(CCNC(=O)C(=O)NCC2OCCN2S(=O)(=O)c2ccc(C)cc2)cc1OC (stereo not drawn),0.639%
7,CN(C)S(=O)(=O)N1CCN(S(=O)(=O)N2CCOCC2)CC1,14.4%
8,COc1cc(=O)n2c(n1)SCCC2,10.8%
9,Cc1ccc(S(=O)(=O)Nc2c(C(=O)O)[nH]c3ccccc23)c(C)c1,8.66%
10,C=COCCNC(=O)C1CC(=O)N(c2ccc(C)cc2)C1 (stereo not drawn),-0.0701%
11,COCc1c(C(C)C)nc(C(C)C)c(/C=C/[C@@H](O)C[C@@H](O)CC(=O)[O-])c1-c1ccc(F)cc1.[Na+],12.4%
12,O=S(=O)(NCc1ccccn1)c1cc(C(F)(F)F)ccc1Cl,3.3%
13,O=C(c1ccccc1)c1ccccn1,6.25%
14,CC(C)(C)c1ccc(OCC(=O)OCCNC(=O)c2cccnc2)cc1.Cl,11.5%
15,Cc1nn(C(C)c2n[nH]c(=S)n2-c2ccc(F)cc2)c(C)c1[N+](=O)[O-] (stereo not drawn),4.22%
16,CC(C)c1csc(CN2CCN(Cc3ccc(F)cc3)C(CCO)C2)n1 (stereo not drawn),-4.26%
17,COc1ccccc1NC(=S)N1CCC(NC(=O)NC23CC4CC(CC(C4)C2)C3)CC1,11.7%
18,[Br-].c1ccc(Cn2c(-c3ccccc3)c[n+]3c2SCCC3)cc1,-17.8%
19,O=C(CSCc1ccc([N+](=O)[O-])cc1)NC1CC2CCC1C2 (stereo not drawn),4.2%
20,COc1ccc2nc(NNC(=O)C3COc4ccccc4O3)sc2c1 (stereo not drawn),-1.9%
21,CCOc1ccc(CCNS(=O)(=O)c2cnc[nH]2)cc1OCC,20.2%
